Measurements: article PMC12820563, “FoxP3 forms a head-to-head dimer in vivo and stabilizes its multimerization on adjacent microsatellites”
The list shows a part of the results.

What follows are sequences tested against T1, MBP-FoxP1dN (Mus musculus, UniProt P58462 326-579) (assay: PD-seq (MBP pull-down with sequencing); 20 mM Tris-HCl pH 7.5, 100 mM NaCl, 1.5 mM MgCl2, 0.4 uM protein, 0.1 uM dsDNA library, 30 min, room temperature, amylose pull-down; high values mean tight binding). Conditions: protein: recombinant; tags: His6-MBP; chain copies: 2; dsDNA, one strand shown.
T1 sequence: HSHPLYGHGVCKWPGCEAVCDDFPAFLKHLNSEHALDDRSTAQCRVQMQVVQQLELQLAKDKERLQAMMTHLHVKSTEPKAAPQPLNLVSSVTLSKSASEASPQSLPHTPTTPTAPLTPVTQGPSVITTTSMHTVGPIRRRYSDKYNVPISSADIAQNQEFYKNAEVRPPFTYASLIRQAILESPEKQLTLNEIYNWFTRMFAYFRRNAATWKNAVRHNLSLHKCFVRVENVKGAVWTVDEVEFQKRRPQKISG
Method in brief: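 A degenerate double-stranded DNA library, filled in with Klenow, was added at 0.1 µM to 0.4 µM His6-MBP-tagged mouse FoxP3 or FoxP1 fragment lacking the N-terminus, expressed in E. coli. Incubation lasted 30 min at room temperature in Tris pH 7.5 buffer with NaCl and MgCl2, after which complexes were collected on amylose resin, washed three times, digested with proteinase K to free the DNA, barcoded by PCR and sequenced by Illumina. Binding is the pooled-replicate reads-per-million enrichment of pull-down over input.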

| Sequence | binding signal |
| --- | --- |
| GATGATTGTTCTCCCAGCTGATGAATTATTGTTATCGAGTAAACAAATTTTCCTAATCTTTCTGTTCAAGCGCCATCTAC | 2.83 RPM ratio (pull-down/input) |
| GATGATTGTTCTCCCAGCTGATGAATTTGCACCGTCGAGTAAACAAATTTTCCTAATCTTTCTGTTCAAGCGCCATCTAC | 0.971 RPM ratio (pull-down/input) |
| GATGATTGTTCTCCCAGCTGATGAATTCAGGTATTCGAGTAAACAAATTTTCCTAATCTTTCTGTTCAAGCGCCATCTAC | 1 RPM ratio (pull-down/input) |
| GATGATTGTTCTCCCAGCTGATGAATTCTGAGGCTCGAGTAAACAAATTTTCCTAATCTTTCTGTTCAAGCGCCATCTAC | 0.859 RPM ratio (pull-down/input) |
| GATGATTGTTCTCCCAGCTGATGAATTGATCCCCTCGAGTAAACAAATTTTCCTAATCTTTCTGTTCAAGCGCCATCTAC | 0.821 RPM ratio (pull-down/input) |
| GATGATTGTTCTCCCAGCTGATGAATTCCGCTGATCGAGTAAACAAATTTTCCTAATCTTTCTGTTCAAGCGCCATCTAC | 0.889 RPM ratio (pull-down/input) |
| GATGATTGTTCTCCCAGCTGATGAATTCAGGATTTCGAGTAAACAAATTTTCCTAATCTTTCTGTTCAAGCGCCATCTAC | 0.809 RPM ratio (pull-down/input) |
| GATGATTGTTCTCCCAGCTGATGAATTTTGGTCGTCGAGTAAACAAATTTTCCTAATCTTTCTGTTCAAGCGCCATCTAC | 0.905 RPM ratio (pull-down/input) |
| GATGATTGTTCTCCCAGCTGATGAATTTGTCACGTCGAGTAAACAAATTTTCCTAATCTTTCTGTTCAAGCGCCATCTAC | 1.13 RPM ratio (pull-down/input) |
| GATGATTGTTCTCCCAGCTGATGAATTCTTATGTTCGAGTAAACAAATTTTCCTAATCTTTCTGTTCAAGCGCCATCTAC | 1.21 RPM ratio (pull-down/input) |
| GATGATTGTTCTCCCAGCTGATGAATTGGCAGGCTCGAGTAAACAAATTTTCCTAATCTTTCTGTTCAAGCGCCATCTAC | 0.767 RPM ratio (pull-down/input) |
| GATGATTGTTCTCCCAGCTGATGAATTGGGCTCCTCGAGTAAACAAATTTTCCTAATCTTTCTGTTCAAGCGCCATCTAC | 0.774 RPM ratio (pull-down/input) |
| GATGATTGTTCTCCCAGCTGATGAATTAACTGAATCGAGTAAACAAATTTTCCTAATCTTTCTGTTCAAGCGCCATCTAC | 1.02 RPM ratio (pull-down/input) |
| GATGATTGTTCTCCCAGCTGATGAATTCCATGCATCGAGTAAACAAATTTTCCTAATCTTTCTGTTCAAGCGCCATCTAC | 1.07 RPM ratio (pull-down/input) |
| GATGATTGTTCTCCCAGCTGATGAATTCGGCTCCTCGAGTAAACAAATTTTCCTAATCTTTCTGTTCAAGCGCCATCTAC | 0.747 RPM ratio (pull-down/input) |
| GATGATTGTTCTCCCAGCTGATGAATTTTGACTGTCGAGTAAACAAATTTTCCTAATCTTTCTGTTCAAGCGCCATCTAC | 0.889 RPM ratio (pull-down/input) |

| Sequence | binding signal |
| --- | --- |
| GATGATTGTTCTCCCAGCTGATGAATTCGAGTCATCGAGTAAACAAATTTTCCTAATCTTTCTGTTCAAGCGCCATCTAC | 0.921 RPM ratio (pull-down/input) |
| GATGATTGTTCTCCCAGCTGATGAATTTACACTTTCGAGTAAACAAATTTTCCTAATCTTTCTGTTCAAGCGCCATCTAC | 1.45 RPM ratio (pull-down/input) |
| GATGATTGTTCTCCCAGCTGATGAATTCTATTTCTCGAGTAAACAAATTTTCCTAATCTTTCTGTTCAAGCGCCATCTAC | 0.971 RPM ratio (pull-down/input) |
| GATGATTGTTCTCCCAGCTGATGAATTGCAGTAATCGAGTAAACAAATTTTCCTAATCTTTCTGTTCAAGCGCCATCTAC | 1.57 RPM ratio (pull-down/input) |
| GATGATTGTTCTCCCAGCTGATGAATTTCTTCGTTCGAGTAAACAAATTTTCCTAATCTTTCTGTTCAAGCGCCATCTAC | 0.86 RPM ratio (pull-down/input) |
| GATGATTGTTCTCCCAGCTGATGAATTTCCGCTGTCGAGTAAACAAATTTTCCTAATCTTTCTGTTCAAGCGCCATCTAC | 0.845 RPM ratio (pull-down/input) |
| GATGATTGTTCTCCCAGCTGATGAATTATCGATGTCGAGTAAACAAATTTTCCTAATCTTTCTGTTCAAGCGCCATCTAC | 1.15 RPM ratio (pull-down/input) |
| GATGATTGTTCTCCCAGCTGATGAATTTGATAAGTCGAGTAAACAAATTTTCCTAATCTTTCTGTTCAAGCGCCATCTAC | 0.939 RPM ratio (pull-down/input) |
| GATGATTGTTCTCCCAGCTGATGAATTGAGTGCGTCGAGTAAACAAATTTTCCTAATCTTTCTGTTCAAGCGCCATCTAC | 1.05 RPM ratio (pull-down/input) |
| GATGATTGTTCTCCCAGCTGATGAATTATTGACCTCGAGTAAACAAATTTTCCTAATCTTTCTGTTCAAGCGCCATCTAC | 1.31 RPM ratio (pull-down/input) |
| GATGATTGTTCTCCCAGCTGATGAATTCAACTTCTCGAGTAAACAAATTTTCCTAATCTTTCTGTTCAAGCGCCATCTAC | 0.85 RPM ratio (pull-down/input) |
| GATGATTGTTCTCCCAGCTGATGAATTTCCAAATTCGAGTAAACAAATTTTCCTAATCTTTCTGTTCAAGCGCCATCTAC | 0.863 RPM ratio (pull-down/input) |
| GATGATTGTTCTCCCAGCTGATGAATTATAGCGTTCGAGTAAACAAATTTTCCTAATCTTTCTGTTCAAGCGCCATCTAC | 1 RPM ratio (pull-down/input) |
| GATGATTGTTCTCCCAGCTGATGAATTCGTCGAATCGAGTAAACAAATTTTCCTAATCTTTCTGTTCAAGCGCCATCTAC | 0.99 RPM ratio (pull-down/input) |
| GATGATTGTTCTCCCAGCTGATGAATTTGAAAATTCGAGTAAACAAATTTTCCTAATCTTTCTGTTCAAGCGCCATCTAC | 0.964 RPM ratio (pull-down/input) |
